The record followed here is PubChem BioAssay AID488969 (Vanderbilt High Throughput Screening Facility, 2010).

The structures appear in SMILES notation. In all, about 110,000 compounds were measured (“z-score”: median about -0.1, highest 2% from about 2 on). The list shows a part of the results. Activity calls are given as the source filed them.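 How the source made its calls: active means z-score in the third read window above 3 or below -3; inactive means the rest.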

For the assay, the target named is Metabotropic glutamate receptor 8 (Rattus norvegicus) (UniProt P70579). Description: rat mGluR8 modulators via GIRK flux, primary screen, cell-based, thallium flux, HTS (AID 488969). Particulars: HEK293 rat mGluR8, GIRK (G protein-gated inwardly rectifying potassium channel) thallium flux, FluoZin2; at 10 µM; stronger effect = higher value.
Chain of UniProt P70579 (P70579 whole entry, looked up): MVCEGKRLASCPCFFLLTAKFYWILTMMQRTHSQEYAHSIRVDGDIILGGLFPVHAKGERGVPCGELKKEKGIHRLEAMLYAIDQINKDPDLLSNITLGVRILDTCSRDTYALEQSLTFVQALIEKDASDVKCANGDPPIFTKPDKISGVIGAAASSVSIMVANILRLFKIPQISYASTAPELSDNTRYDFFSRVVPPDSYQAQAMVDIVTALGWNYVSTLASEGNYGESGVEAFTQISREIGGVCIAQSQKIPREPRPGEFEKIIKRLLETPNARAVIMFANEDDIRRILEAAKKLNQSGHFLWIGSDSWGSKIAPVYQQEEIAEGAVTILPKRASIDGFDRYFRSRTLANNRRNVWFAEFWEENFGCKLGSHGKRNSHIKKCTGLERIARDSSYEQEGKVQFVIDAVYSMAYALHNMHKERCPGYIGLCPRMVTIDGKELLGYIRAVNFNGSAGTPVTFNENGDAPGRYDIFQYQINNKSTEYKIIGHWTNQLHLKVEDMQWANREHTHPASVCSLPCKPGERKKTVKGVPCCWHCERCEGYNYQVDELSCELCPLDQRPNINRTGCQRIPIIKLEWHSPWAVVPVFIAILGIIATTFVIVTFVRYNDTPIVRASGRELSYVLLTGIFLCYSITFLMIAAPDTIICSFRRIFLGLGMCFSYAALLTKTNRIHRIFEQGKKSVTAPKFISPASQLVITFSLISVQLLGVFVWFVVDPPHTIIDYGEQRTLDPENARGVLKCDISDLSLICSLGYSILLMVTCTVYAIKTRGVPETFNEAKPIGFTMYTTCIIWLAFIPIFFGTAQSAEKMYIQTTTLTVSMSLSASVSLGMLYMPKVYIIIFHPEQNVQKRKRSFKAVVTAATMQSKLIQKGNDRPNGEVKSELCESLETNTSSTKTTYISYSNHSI
`CCN1CCN(Cc2cc(C(C)(C)C)c(O)c(C(C)(C)C)c2)CC1` gave a z-score of 0.295. The same measure for `CCCS(=O)(=O)N1CCCC(C(=O)N2CCC3(CC2)OCCO3)C1` (stereo unspecified): 0.0755; for `O=C(C1CC(c2ccccc2O)=NO1)N1CCC2(CC1)OCCO2` (stereo unspecified): -0.0752; for `CCn1ncc(/C=C2/CC3C4CC=C5CC(O)CCC5(C)C4CCC3(C)C2=O)c1C` (stereo unspecified): 0.507. The same measure for `Cc1csc(=N)n1Cc1ccccc1`: -0.24.

`Cc1cccc(N2CCN(CCc3ccccc3)CC2)c1C` registered a z-score of 0.0162. `Nc1ccc(C2(c3ccc(N)cc3)CN3CCC2CC3)cc1` showed a z-score of -0.105.

For the compound `O=C1N=c2ccccc2=C/C1=C\c1c(O)[nH]c(=S)[nH]c1=O`, the z-score is -0.815. With `COC(=O)CC1=C(C(=O)OC)C2(C(=O)Nc3c(C)cccc32)C(C#N)=C(N)O1` (stereo unspecified) the figure was -0.267; with `Cn1c(O)c(C(c2ccncc2)c2c(O)n(C)c(=S)n(C)c2=O)c(=O)n(C)c1=S`, 0.225. As to `COc1ccc(C(C)=O)cc1CC(C(=O)c1ccccc1)N(C)C` (stereo unspecified), the z-score is -0.686. With `CC12CN3CC(C)(CN(C1)C3c1cccnc1)C2=O` (stereo unspecified) the figure was 0.227. With `O=C(CN1C(=O)CN=C(c2ccccc2Cl)c2cc(Cl)ccc21)NCc1ccco1` the figure was 2.98; with `CCN1CCN(C(=O)Cc2coc3cc(C)cc(C)c23)CC1`, 0.139. Compound `CCN1CCN(Cc2cc(Br)cc(OC)c2O)CC1` had a z-score of -0.164.

In turn, `CSc1ncc(Cl)c(C(=O)O)n1` (tested in a mixture with another compound) displayed a z-score of -0.123. In turn, `O=c1[nH]c(=O)n(Cc2ccccc2)c(O)c1C=Nc1ccc(CN2CCOCC2)cc1` came in with a z-score of -0.0494. The same measure for `CCCCn1c(O)c(C(CC)=NC(C)c2ccccc2)c(=O)[nH]c1=O` (stereo unspecified): -0.813. With `CN1CCN(c2ccc(S(=O)(=O)C(F)(F)F)cc2[N+](=O)[O-])CC1` the figure was -0.308; with `Fc1ccccc1N1CCN(Cc2c(F)cccc2F)CC1`, 0.122; with `CCCCCSc1cc(OC)c(CCNC)cc1OC`, 0.115.

`CC(C)NC(C)C(=O)C12CC3CC(CC(C3)C1)C2` (stereo unspecified): the z-score was 0.115. `O=C(N/N=C1/CN2CCC1CC2)c1cc2ccccc2cc1O` gave a z-score of 0.139. The same measure for `CNC(=O)OCCc1nccn1C`: active: 3.02; for `O=C1NC(=O)C(=Cc2ccc(OCC(=O)N3CCOCC3)cc2)C(=O)N1`: -0.179. The same measure for `CCOC(=O)c1sc(N=Nc2c(O)[nH]c(=O)[nH]c2=O)c(C(=O)OCC)c1C`: -0.194; for `CN1CCN(c2ccc(N)c(N3CCN(C)CC3)c2)CC1`: -0.575. With `CN1CCN(c2ccc(C=O)cc2)CC1` the figure was 0.242; with `COc1ccc(CCn2c(O)c(/C=N/N3CCCCC3)c(=O)[nH]c2=O)cc1OC`, 0.0321; with `CCCNC(=O)N1C2CCC1CC(O)(c1cccnc1)C2` (stereo unspecified), 0.154. Compound `CC1(C)CN=C(NCc2ccccc2Cl)S1` registered a z-score of 1.62.
